# According to a collection of fitness landscapes (doi:10.1016/j.celrep.2020.107928):
# Over roughly 81,000 sequences, “one-hybrid fitness for binding NBS DNA” has its median near -0.1; the highest 2% begin near 0.36. Some of the results follow.
# B1: Caulobacter ParB omega fusion; a variant is named by its letters at X, in order, B8GW30 (parent)
# chain: MESVVVGEPGMSEGRRGLGRGLSALLGEVDAAPAQAPGEQLGGSREAPIEILQRNPDQPRRTFREEDLEDLSNSIREKGVLQPILVRPSPDTAGEYQIVAGERAWRAAQRAGLKTVPIMVRELDDLAVLEIGIIENVQRADLNVLEEALSYKVLMEKFERTQENIAQTIGKSXSHVANXMRLLXLPDEVQSYLVSGELTAXHARAIAAAADPVALAKQIIEGGLSVRETEALARKAPNLSAGKSKGGRPPRVKDTDTQALESDLSSVLGLDVSIDHRGSTGTLTITYATLEQLDDLCNRLTRGI
# Variants of: B1
# Assay: one-hybrid fitness for binding NBS DNA (the Noc-binding site; scaled: cognate 1, non-cognate 0); higher = stronger binding
# Settings: with NBS DNA site
# How it was run: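 Values were rescaled so that cognate is 1 and non-cognate is 0. Each is a fitness, the log change in a variant's read ratio to wild type from Illumina reads of plasmids before and after selection, with three replicate libraries pooled and variants under 10 reads dropped. Selection of the Caulobacter ParB libraries, four specificity codons randomised, used E. coli USO with a HIS3 reporter, site 19 bp from the promoter, on M9-minus-histidine with 0.1 mM IPTG and 5 mM 3-AT for 48 hours at 37°C.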
row,Variant,one-hybrid fitness for binding NBS DNA
1,MSNR,≤ 0.2
2,TAMA,≤ 0.2
3,QLIQ,≤ 0.2
4,FSQT,≤ 0.2
5,WMQR,≤ 0.2
6,GAME,≤ 0.2
7,WMKG,≤ 0.2
8,GPHL,≤ 0.2
9,THWT,≤ 0.2
10,RDQS,≤ 0.2
11,TRDC,≤ 0.2
12,RGQD,≤ 0.2
13,KGRD,≤ 0.2
14,NLQS,≤ 0.2
15,VCVS,≤ 0.2
16,RNAY,≤ 0.2
17,PALW,≤ 0.2
18,RSNK,≤ 0.2
19,MRKA,≤ 0.2
20,GTRY,≤ 0.2
21,GLSH,≤ 0.2
22,APCD,≤ 0.2
23,VVVS,≤ 0.2
24,YIHS,≤ 0.2

row,Variant,one-hybrid fitness for binding NBS DNA
1,QMWC,≤ 0.2
2,CQHK,≤ 0.2
3,TYCV,≤ 0.2
4,PNGP,≤ 0.2
5,RLSW,≤ 0.2
6,GMDL,≤ 0.2
7,NFLS,≤ 0.2
8,RWCG,≤ 0.2
9,GHTY,≤ 0.2
10,ISTA,≤ 0.2
11,QNKS,0.355
12,APIR,≤ 0.2
13,WASA,≤ 0.2
14,SCHT,≤ 0.2
15,QPGY,≤ 0.2
16,PLIT,≤ 0.2
17,KILF,≤ 0.2
18,SVRR,≤ 0.2
19,VHQY,≤ 0.2
20,SYNY,≤ 0.2
21,YHYS,≤ 0.2
22,QCER,0.438
23,PIGD,≤ 0.2
24,GTRC,≤ 0.2

row,Variant,one-hybrid fitness for binding NBS DNA
1,VMRC,≤ 0.2
2,EPFT,≤ 0.2
3,WAIR,≤ 0.2
4,QVEP,≤ 0.2
5,CQKV,≤ 0.2
6,MVYD,≤ 0.2
7,TGAI,≤ 0.2
8,CLSA,≤ 0.2
9,IHMV,≤ 0.2
10,QGNT,≤ 0.2
11,RRAN,0.282
12,YETF,≤ 0.2
13,IIIS,≤ 0.2
14,QGRC,≤ 0.2
15,YNAT,≤ 0.2
16,VQFE,≤ 0.2
17,AANQ,≤ 0.2
18,SLAV,≤ 0.2
19,LRDY,≤ 0.2
20,YVNS,≤ 0.2
21,WNYR,≤ 0.2
22,NAEW,≤ 0.2
23,DLFL,≤ 0.2
24,VTNA,≤ 0.2

row,Variant,one-hybrid fitness for binding NBS DNA
1,SYSF,≤ 0.2
2,PGQM,≤ 0.2
3,CWTC,≤ 0.2
4,PAQD,≤ 0.2
5,SFNC,≤ 0.2
6,QGSV,≤ 0.2
7,QRVR,0.839
8,QDVR,≤ 0.2
9,NASQ,≤ 0.2
10,GMKL,≤ 0.2
11,SVCC,≤ 0.2
12,HKTA,≤ 0.2
13,MMGT,≤ 0.2
14,HVLF,≤ 0.2
15,QNRP,≤ 0.2
16,PPHG,≤ 0.2
17,PGKV,≤ 0.2
18,TYQD,≤ 0.2
19,MLTR,≤ 0.2
20,SSDN,≤ 0.2
21,LAPY,≤ 0.2
22,PVRR,≤ 0.2
23,FCVS,≤ 0.2
24,RMPL,≤ 0.2

row,Variant,one-hybrid fitness for binding NBS DNA
1,DCSS,≤ 0.2
2,MPRG,≤ 0.2
3,VIPS,≤ 0.2
4,LYID,≤ 0.2
5,WQVT,≤ 0.2
6,ETRW,≤ 0.2
7,QATQ,≤ 0.2
8,MRAP,≤ 0.2
9,PCIV,≤ 0.2
10,WPSA,≤ 0.2
11,YHCT,≤ 0.2
12,RFGQ,≤ 0.2
13,HEHD,≤ 0.2
14,GCHR,≤ 0.2
15,WSKT,≤ 0.2
16,TKCV,≤ 0.2
17,VLCY,≤ 0.2
18,VELL,≤ 0.2
19,EQGH,≤ 0.2
20,PTSA,≤ 0.2
21,MNSN,≤ 0.2
22,MPTA,≤ 0.2
23,VSAV,≤ 0.2
24,TGMI,≤ 0.2

row,Variant,one-hybrid fitness for binding NBS DNA
1,TKLY,≤ 0.2
2,WCHC,≤ 0.2
3,ITKY,≤ 0.2
4,CFAT,≤ 0.2
5,ASTA,≤ 0.2
6,IRVS,≤ 0.2
7,PTRM,≤ 0.2
8,REWG,≤ 0.2
9,NLPR,≤ 0.2
10,CTNP,≤ 0.2
11,TGSE,≤ 0.2
12,EGET,≤ 0.2
13,ATMW,≤ 0.2
14,SECC,≤ 0.2
15,IKLC,≤ 0.2
16,WMLN,≤ 0.2
17,QHSV,≤ 0.2
18,RQEK,≤ 0.2
19,DAVM,≤ 0.2
20,CAMR,≤ 0.2
21,PAKE,≤ 0.2
22,CQVR,≤ 0.2
23,TKNI,≤ 0.2
24,PHMI,≤ 0.2

row,Variant,one-hybrid fitness for binding NBS DNA
1,ETTG,≤ 0.2
2,ACAK,≤ 0.2
3,QNWI,≤ 0.2
4,RVRY,0.267
5,MVVS,≤ 0.2
6,GVLT,≤ 0.2
7,SMGC,≤ 0.2
8,GIWV,≤ 0.2
9,HTPN,≤ 0.2
10,FCHL,≤ 0.2
11,RSMV,≤ 0.2
12,KIRM,≤ 0.2
13,NPLI,≤ 0.2
14,AHIF,≤ 0.2
15,KNAG,≤ 0.2
16,RFWC,≤ 0.2
17,TEDV,≤ 0.2
18,TWYS,≤ 0.2
19,QTKL,0.395
20,TAFW,≤ 0.2
21,YRCT,≤ 0.2
22,TDWL,≤ 0.2
23,KMDR,≤ 0.2
24,DWIS,≤ 0.2

row,Variant,one-hybrid fitness for binding NBS DNA
1,SFGR,≤ 0.2
2,NIGR,≤ 0.2
3,VASA,≤ 0.2
4,EFMR,≤ 0.2
5,REDM,≤ 0.2
6,EPLL,≤ 0.2
7,KQGN,≤ 0.2
8,ARIQ,≤ 0.2
9,PLMA,≤ 0.2
10,TRRD,≤ 0.2
11,TLKQ,≤ 0.2
12,YQLF,≤ 0.2
13,DPRL,≤ 0.2
14,VYKG,≤ 0.2
15,SVGE,≤ 0.2
16,CYYV,≤ 0.2
17,WEKR,≤ 0.2
18,PVAC,≤ 0.2
19,FTGG,≤ 0.2
20,SMQP,≤ 0.2
21,QVDC,≤ 0.2
22,WSLY,≤ 0.2
23,WLIG,≤ 0.2
24,TLSC,≤ 0.2

row,Variant,one-hybrid fitness for binding NBS DNA
1,RLGH,≤ 0.2
2,APVN,≤ 0.2
3,TLTA,≤ 0.2
4,AMHS,≤ 0.2
5,GSGG,≤ 0.2
6,HSVV,≤ 0.2
7,SRSG,≤ 0.2
8,DWSV,≤ 0.2
9,EQMG,≤ 0.2
10,YFAG,≤ 0.2
11,YVEF,≤ 0.2
12,HLGT,≤ 0.2
13,PCVS,≤ 0.2
14,RVSV,≤ 0.2
15,RMFM,≤ 0.2
16,RNCY,≤ 0.2
17,RVVV,≤ 0.2
18,PKSW,≤ 0.2
19,FLFS,≤ 0.2
20,QSDG,≤ 0.2
21,TNLT,≤ 0.2
22,IHSG,≤ 0.2
23,NPRI,≤ 0.2
24,FDTY,≤ 0.2

row,Variant,one-hybrid fitness for binding NBS DNA
1,RKMD,≤ 0.2
2,FDTR,≤ 0.2
3,DWSR,≤ 0.2
4,SNPG,≤ 0.2
5,RKHH,0.245
6,NHIR,≤ 0.2
7,RMKY,0.311
8,AEDY,≤ 0.2
9,HLWA,≤ 0.2
10,TCKV,≤ 0.2
11,WDAD,≤ 0.2
12,REAF,≤ 0.2
13,YDHR,≤ 0.2
14,DREI,≤ 0.2
15,TPVL,≤ 0.2
16,NLTS,≤ 0.2
17,RLYE,≤ 0.2
18,AVTL,≤ 0.2
19,TRFV,≤ 0.2
20,SDMP,≤ 0.2
21,FYDS,≤ 0.2
22,PAYM,≤ 0.2
23,GEMG,≤ 0.2
24,TYCH,≤ 0.2

row,Variant,one-hybrid fitness for binding NBS DNA
1,VPPS,≤ 0.2
2,LYTL,≤ 0.2
3,LRGK,≤ 0.2
4,QWSG,≤ 0.2
5,IGKR,≤ 0.2
6,ERRR,0.265
7,EGHR,≤ 0.2
8,ECHR,≤ 0.2
9,WHPC,≤ 0.2
10,RHHV,≤ 0.2
11,IQAC,≤ 0.2
12,TTHI,≤ 0.2
13,PRFY,≤ 0.2
14,HCLR,≤ 0.2
15,PHLI,≤ 0.2
16,PPYL,≤ 0.2
17,AKPK,≤ 0.2
18,LKWT,≤ 0.2
19,SNVT,≤ 0.2
20,ATSF,≤ 0.2
21,RPHD,≤ 0.2
22,NHML,≤ 0.2
23,QQPG,≤ 0.2
24,CMGF,≤ 0.2

row,Variant,one-hybrid fitness for binding NBS DNA
1,NAKM,≤ 0.2
2,IRDA,≤ 0.2
3,ICTR,≤ 0.2
4,NQLV,≤ 0.2
5,HMES,≤ 0.2
6,VMQR,≤ 0.2
7,TWFC,≤ 0.2
8,NVQI,≤ 0.2
9,GHAC,≤ 0.2
10,SEEY,≤ 0.2
11,CKTP,≤ 0.2
12,NHAD,≤ 0.2
13,CMGG,≤ 0.2
14,PPNG,≤ 0.2
15,GTHS,≤ 0.2
16,TSHK,≤ 0.2
17,EIFV,≤ 0.2
18,HAMS,≤ 0.2
19,GVRQ,≤ 0.2
20,SRHL,≤ 0.2
21,LHMR,≤ 0.2
22,SSTE,≤ 0.2
23,MGMM,≤ 0.2
24,INQS,≤ 0.2

row,Variant,one-hybrid fitness for binding NBS DNA
1,PYAV,≤ 0.2
2,CPSC,≤ 0.2
3,PLYN,≤ 0.2
4,PCLK,≤ 0.2
5,VMRL,≤ 0.2
6,TGNG,≤ 0.2
7,HSWA,≤ 0.2
8,MWTR,≤ 0.2
9,TKSI,≤ 0.2
10,CWQN,≤ 0.2
11,CRTG,≤ 0.2
12,WSCL,≤ 0.2
13,YWLR,≤ 0.2
14,APNR,≤ 0.2
15,GPSL,≤ 0.2
16,CYIR,≤ 0.2
17,GNLD,≤ 0.2
18,EGKG,≤ 0.2
